One assay concerns HSkMC. The assay can be described thus: cytotoxicity call (relative viability < 0.9). The settings on record: 10 µM.
The subject of a further assay is HepG2. Briefly: cytotoxicity call (relative viability < 0.9). The note with it: 10 µM.
In the next assay the test system is S. aureus RN4220. Briefly: growth inhibition call (relative growth <= 0.2). The note with it: 50 µM.

Some of the results follow.

On to `CN1C(=O)c2cc(NC(=O)C3CCOCC3)ccc2OC[C@H]2O[C@@H](CC(=O)NCc3ccc4c(c3)OCO4)CC[C@@H]21`, for which the cytotoxicity call in the assay with HSkMC and in the assay on HepG2 was “inactive” in each case. In the assay with S. aureus RN4220, the growth inhibition call was “inactive”.
For `COc1ccc(S(=O)(=O)N(C)C[C@H]2OCCCC[C@H](C)Oc3ccc(NC(=O)Nc4cccc5ccccc45)cc3C(=O)N([C@H](C)CO)C[C@@H]2C)cc1`, the cytotoxicity call with HSkMC and in the assay on HepG2 was “inactive” throughout. Moreover, the growth inhibition call in the assay with S. aureus RN4220 is “inactive”.
`C[C@@H]1CCCCO[C@@H](CN(C)CC2CC2)[C@H](C)CN([C@H](C)CO)C(=O)c2cc(NC(=O)Nc3ccc(F)cc3)ccc2O1`: the cytotoxicity call with HSkMC and in the assay on HepG2 was “inactive” throughout. For the same compound, in the assay on S. aureus RN4220, the growth inhibition call was “inactive”.
Regarding `COc1ccc(CNCC(=O)O)cc1`, the cytotoxicity call in the assay with HSkMC and with HepG2 was “inactive” each time. Also, the growth inhibition call with S. aureus RN4220 was “inactive”.
Take `Cc1noc(C)c1NC(=O)N(C)C[C@@H]1Oc2ncc(C#CCN(C)C)cc2C(=O)N([C@@H](C)CO)C[C@@H]1C`: the cytotoxicity call in the assay on HSkMC and in the assay on HepG2 was “inactive” each time. Besides, the growth inhibition call in the assay with S. aureus RN4220 was “inactive”.
Consider `COc1ccc2c3c([nH]c2c1)[C@@H](CO)N(C[C@]13CCN(CC1)C(=O)c1ccncc1)C(=O)c1ccncc1`, for which the cytotoxicity call in the assay on HSkMC (human skeletal muscle cells) and with HepG2 was “inactive” each time. Moreover, the growth inhibition call in the assay on S. aureus RN4220 was “inactive”.
`CC(=O)OCC(=O)C1(O)CCC2C3CCC4CC(O)CCC4(C)C3C(=O)CC21C` (stereo not given): the cytotoxicity call in the assay with HSkMC and with HepG2 was “inactive” throughout. The growth inhibition call in the assay with S. aureus RN4220 was “inactive”.
In the case of `C[C@H](CO)N1C[C@H](C)[C@H](CN(C)C(=O)Nc2ccc(C(F)(F)F)cc2)Oc2ccc(NC(=O)Nc3ccccc3)cc2C1=O`, the cytotoxicity call with HSkMC is “active”. In addition, the cytotoxicity call in the assay on HepG2 is “inactive”. Besides, the growth inhibition call in the assay on S. aureus RN4220 is “inactive”.
On to `C[C@@H]1CN([C@H](C)CO)C(=O)c2cccc(NC(=O)Nc3ccc(C(F)(F)F)cc3)c2O[C@H]1CN(C)C(=O)Nc1ccc(C(F)(F)F)cc1`, for which the cytotoxicity call in the assay with HSkMC and in the assay with HepG2 was “inactive” each time. Besides, in the assay on S. aureus RN4220, the growth inhibition call is “inactive”.
Turning to `C[C@H](CO)N1C[C@H](C)[C@@H](CN(C)C(=O)Nc2ccccc2)OCCCC[C@H](C)Oc2ccc(NC(=O)Nc3ccc4c(c3)OCO4)cc2C1=O`, the cytotoxicity call with HSkMC and with HepG2 was “inactive” in each case. Further, the growth inhibition call in the assay with S. aureus RN4220 was “inactive”.

The values are drawn from the antibiotic and cytotoxicity screens of Wong et al. (2023).
